Measured values from PubChem BioAssay AID588855 (National Center for Advancing Translational Sciences (NCATS), 2011).
“And” between values parts separate entries of the source, which are not always exact repeats. Equal values may be shown once. The campaign covered roughly 410,000 compounds. About 5,000 (1.2%) were called active. This list was built around the results that the source calls inconclusive (neither active nor inactive); the mix of calls is not that of the screen. Calls follow the shape of the dose curve; as a rule, active = well fitted inhibition curve with a large enough effect; inconclusive = small, poorly fitted or top-dose-only effect; inactive = no such curve, though single readings can be large or run the other way. A potency beside an inconclusive call is a rough fit, not a confirmed value.

test: qHTS for Inhibitors of TGF-b; conditions: HepG2 CAGA-GFP TGF-b/SMAD3 reporter, GFP fluorescence, 18 h, TGF-beta stimulated, 500 pg/mL final; series mostly up to 46.1 µM; also: nearly all actives have a fitted effect of over 65% in size
How it was run: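 Inhibition of TGF-beta-driven CAGA-GFP reporter expression in HEPG2 cells is measured by cellular GFP fluorescence after 18 h stimulation with 500 pg/mL recombinant TGF-beta in 1% FBS medium at 37 degrees C.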
Potency is read from the fitted curve at half-maximal effect; tags tell the direction and shape of the fitted curve.

Compound | Potency
COCCCN(Cc1cccs1)S(=O)(=O)c1csc(C(N)=O)c1 | inactive
Cc1nc2ccn(Cc3cccs3)c(=O)c2cc1C(=O)NCc1ccc(Cl)cc1 | inconclusive: 11.2 µM [inhibitor, partial curve, poor fit]
COc1cc2nc(Nc3ccc(C)c(C)c3)nc(N)c2cc1OC | inconclusive: 25.1 µM [inhibitor, single point] and inconclusive: 35.5 µM [inhibitor, single point]
C[C@H](CO)N1C[C@H](C)[C@@H](CN(C)S(=O)(=O)c2ccccc2)Oc2ccc(NS(=O)(=O)c3ccc(F)cc3)cc2C1=O | inconclusive: 14.1 µM [inhibitor, partial curve, poor fit]
C=CCNC(=S)Nc1ccc(Cl)cc1F | inconclusive: 10 µM [inhibitor, single point]
COc1cc(/C=N/NC(=O)COc2cccc(F)c2)ccc1OS(=O)(=O)c1ccc(C)cc1 | inconclusive: 3.16 µM [inhibitor, full curve]
COc1ccc(C(=O)NN=C2CCCC2)c(OC)c1 | inactive
CN(c1ccccc1C(=O)Nc1ccc(S(=O)(=O)N2CCCCC2)cc1)S(C)(=O)=O | inconclusive: 35.5 µM [inhibitor, single point]
CN(C)S(=O)(=O)c1ccc(Cl)c(C(=O)Nc2cccc([N+](=O)[O-])c2)c1 | inconclusive: 14.1 µM [inhibitor, partial curve, poor fit]
CCOC(=O)c1ccc(NC(=O)Cn2cc(C(=O)c3cccs3)c3ccccc32)cc1 | inconclusive: 15.8 µM [inhibitor, single point]
COc1ccc(C2CC(c3ccccc3Br)=NN2c2ccc(S(N)(=O)=O)cc2)cc1 (centres undefined) | inconclusive: 15.8 µM [inhibitor, single point]
COc1ccc(NC(=O)C[C@H]2C(=O)N(Cc3ccccc3)C[C@@H]2Cc2ccccc2)cc1 | inactive
O=c1c2c(nc3c(-c4ccc(Cl)cc4)c[nH]n13)CCC2 | inconclusive: 10 µM [inhibitor, partial curve]
CCOc1cc(/C=C2\SC(=N)N(c3nonc3N)C2=O)ccc1OCC(N)=O | inactive
CCN(CC)C(=O)Cn1c(=O)n(CC(=O)N2CCCCC2)c(=O)c2sccc21 | inactive
CC(=O)OC(COC1C[C@@H]2CC[C@@]1(C)C2(C)C)C[N+]1(C)CCCCC1 (some centres undefined) | inactive
CC(CC(=O)NCc1ccc(Cl)cc1Cl)CC1=NS(=O)(=O)c2ccccc2N1 (centres undefined) | inconclusive: 20 µM [inhibitor, partial curve, poor fit]
CC(C)=NOc1nc(N(C)C)nc(N2CCOCC2)n1 | inconclusive: 35.5 µM [inhibitor, single point]
O=C1c2cnc3nc(SCc4ccc(Cl)cc4)nn3c2CC2c3ccccc3CCN12 (centres undefined) | inconclusive: 3.55 µM [inhibitor, partial curve, poor fit]
Cn1c(C(=O)N2CCCC(C(=O)N3CCN(c4ccccc4)CC3)C2)cc2sccc21 (centres undefined) | inconclusive: 12.6 µM [inhibitor, single point]
CC1(C)Cc2c(sc(NC(=O)c3ccc4c(c3)OCCO4)c2C(N)=O)C(C)(C)N1 | inactive
Cc1csc(SCC(=O)c2ccc(S(=O)(=O)N3CCOCC3)cc2)n1 | inconclusive: 6.31 µM [inhibitor, single point]

Compound | Potency
COc1ccc(NC(=O)Cn2c(=O)n(-c3ccc(C)c(C)c3)c(=O)c3c4c(sc32)CCCCC4)cc1Cl | inconclusive: 7.08 µM [inhibitor, partial curve]
O=C(N/N=C/C(Br)=C/c1ccccc1)NC1CCCCC1 | inconclusive: 22.4 µM [inhibitor, single point]
Cc1sc2ncnc(N3CCC(C(=O)NNC(=O)COc4ccccc4F)CC3)c2c1C | inconclusive: 35.5 µM [inhibitor, single point]
CN1c2ccccc2C(C)(C)C12C=Nc1c(ccc3ccccc13)O2 (centres undefined) | inconclusive: 22.4 µM [inhibitor, single point]
O=C1CCC/C(=N\NC(=O)c2ccc(NS(=O)(=O)c3ccc(Br)cc3)cc2)C1 | inactive
COC(=O)c1c(NC(=S)NNS(=O)(=O)c2ccc(OC)cc2OC)sc2c1CCCCCC2 | inconclusive: 12.6 µM [inhibitor, single point]
CCOC(=O)C(=O)N(C)c1c(CC)nc2c(OCc3ccc(Cl)cc3)cccn12 | inconclusive: 6.31 µM [inhibitor, single point]
CCOC(=O)N1CCN(CCC(=O)Nc2ccc(C)cc2)CC1 | inactive
NC(N)=NC(=O)c1nc(Cl)c(N)nc1N | inactive
CCCc1cc(C(=O)Cc2ccc(F)cc2)c(O)cc1O | inconclusive: 10 µM [inhibitor, partial curve, poor fit]
O=C(c1ccccc1NS(=O)(=O)c1ccc([N+](=O)[O-])cc1[N+](=O)[O-])N1O[C@@H]2C=C[C@H]1C2 | inconclusive: 35.5 µM [inhibitor, single point]
COc1ccc(-c2nc3ccc(Cl)cn3c2NC2CCCCC2)cc1SC1CCCCC1 | inconclusive: 14.1 µM [inhibitor, partial curve, poor fit]
CCCCOC(=O)c1c(C)oc2ccc(NS(=O)(=O)c3ccc(F)cc3C)cc12 | active: 14.1 µM
c1coc(CNc2ncnc3c2oc2ccccc23)c1 | inconclusive: 22.4 µM [inhibitor, single point]
COc1cccc(CNC(=O)C2CCCN(c3nn4c(=O)cc(C)nc4s3)C2)c1 (centres undefined) | inconclusive: 3.16 µM [inhibitor, single point]
CCCN(CCC)CCOc1cc(C)ccc1C(C)C | inconclusive: 22.4 µM [inhibitor, single point]
Cc1cccc2nc(-c3ccco3)c(Nc3ccc4c(c3)OCO4)n12 | inconclusive: 10 µM [inhibitor, partial curve, poor fit] and inconclusive: 11.2 µM [inhibitor, partial curve, poor fit]
CCCCOC(=O)c1ccc(NC(c2ccc(C)cc2)P(=O)(OC)OC)cc1 (centres undefined) | inconclusive: 35.5 µM [inhibitor, single point]
CC(=O)Nc1ccc(OCC(=O)NCc2ccccc2)cc1 | inactive
Cc1cc(N2CCN(c3ccccc3)CC2)n2cc(-c3ccccc3)nc2n1 | inconclusive: 5.01 µM [inhibitor, full curve]
CC1Sc2ccc(S(=O)(=O)CCC(=O)Nc3ccc(C(C)C)cc3)cc2NC1=O (centres undefined) | inconclusive: 7.94 µM [inhibitor, partial curve, poor fit]
CCc1ccc(-c2nc(CSCC(=O)N3CCN(c4ncccn4)CC3)c(C)o2)cc1 | inconclusive: 3.98 µM [inhibitor, full curve, poor fit]

Compound | Potency
CCN(CC)c1cc(C)c2cc(NC(=O)c3cccc(OC)c3)ccc2n1 | inconclusive: 35.5 µM [inhibitor, single point]
CS(=O)(=O)c1ccc(Sc2nc3ccccc3[nH]2)c([N+](=O)[O-])c1 | inconclusive: 31.6 µM [inhibitor, single point]
Cc1ccc(S(=O)(=O)N(CC(O)Cn2c3ccccc3c3ccccc32)c2cccc(C(N)=O)c2)cc1 (centres undefined) | active: 10 µM
COc1ccc(NC(=O)CC23CC4CC(CC(C4)C2)C3)cn1 | inconclusive: 0.891 µM [inhibitor, full curve]
C#Cc1ccc([C@@H]2C=C(C(=O)Nc3ccccc3)O[C@H](OCC)[C@H]2CCCO)cc1 | inactive
O=c1[nH]c(S)nc2sc3c(c12)CCCC3 | inactive
CCOC(=O)c1cc(C#N)c(C)nc1N(CC)CC | inactive
O=[N+]([O-])c1ccc(Cl)c2c1C1C=CCC1C(c1ccccn1)N2 (centres undefined) | inconclusive: 5.62 µM [inhibitor, full curve, poor fit]
CCN(CC)C(=O)Cn1cc(C(=O)C(=O)NCCCN2CCCCC2)c2ccccc21 | inactive
COc1ccc(-c2cc(C(=O)O)n(Cc3ccccc3)n2)cc1 | inactive
CCC(=O)N1CCc2cc(Br)cc(S(=O)(=O)N3CCC(C(=O)Nc4ccc(OC)cc4)CC3)c21 | inconclusive: 20 µM [inhibitor, partial curve, poor fit]
COc1ccc(NC(=O)CSc2nc(-c3cccs3)cc(C(F)(F)F)n2)cc1OC | inconclusive: 0.891 µM [inhibitor, partial curve, poor fit]
COC(=O)c1ccc2c(c1)C(=O)/C(=C/c1ccc(C)cc1)O2 | inconclusive: 6.31 µM [inhibitor, partial curve, poor fit]
COc1ccc(S(=O)(=O)NCC(=O)N(CC(=O)NCc2ccco2)Cc2ccc(F)cc2)cc1 | inactive
O=C(NNC(=O)C(c1ccccc1)c1ccccc1)c1ccccn1 | inconclusive: 11.2 µM [inhibitor, single point]
CCOc1ccc(CNCc2c(C(=O)O)n(Cc3ccccc3F)c3cc(OC)ccc23)cc1 | inconclusive: 35.5 µM [inhibitor, partial curve, poor fit]
O=C(CSc1nc2ccccc2n1CCc1ccccc1)N1CCOCC1 | inconclusive: 22.4 µM [inhibitor, single point]
CCc1ccccc1NC(=O)c1ccc([N+](=O)[O-])s1 | active: 11.2 µM
CCOC(=O)C1=C(C)N(CCCC(=O)NCc2ccc3c(c2)OCO3)C(=O)NC1c1ccc(Br)cc1 (centres undefined) | inconclusive: 1.41 µM [inhibitor, full curve]
CC(C)(C)OC(=O)N1Cc2ccccc2C[C@H]1C(=O)NCC(=O)NCC1CCCO1 (some centres undefined) | inactive
